According to the supplement of paper PMC10126150:
Values marked as one replicate rest on one cluster of the flow cell; about a third of the high ones do not repeat.

Each sequence was assayed on ATP (assay: switch fluorescence ratio, 500 uM ATP over buffer (Cy3 cluster intensity, sum of 5 cycles each) (fold (ratio)); higher = stronger signal-on switching upon ATP binding; sequences stand for … in TCGTCGGCAGCGTCAGATGTGTATAAGAGACAGTTTTTTTTTTTTTTTTTTTTTTTTT…TC). Conditions: aptamer strand: ATP DNA aptamer (quencher-CACCTGGGGGAGTATTGCGGAGGAAGG + anchor), 100 nM annealed; ATP concentration: 500 uM; one replicate.
How it was run: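 Cy3-labelled switching-strand clusters on a modified Illumina MiSeq flow-cell were annealed to 100 nM quencher-labelled ATP aptamer and imaged first in selection buffer, then after 15 min with 500 uM ATP at 22 °C. NaOH stripping and re-annealing separated each of five buffer/ATP cycles, and clusters outside 100-1000 RFU were excluded. The fluorescence ratio sums target-cycle Cy3 intensity over buffer-cycle Cy3 intensity per cluster and averages it per switch-domain sequence.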
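Also: ATP exposure 15 min at 22 °C before imaging.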

Row | Sequence | switch fluorescence ratio
1 | CGGTGCGGTT | 0.989
2 | CGGTGCTCTT | 0.972
3 | CGGTGGCCCT | 0.98
4 | CGGTGGCGAA | 3.1
5 | CGGTGGTCCT | 1.03
6 | CGGTTACGCC | 0.962
7 | CGGTTAGTCT | 1.03
8 | CGGTTAGTGC | 1.02
9 | CGGTTCACGC | 1.04
10 | CGGTTCATTG | 1.01
11 | CGGTTCTCGC | 1.03
12 | CGGTTCTGAA | 0.951
13 | CGGTTGCTGC | 1.01
14 | CGGTTGTACT | 1.08
15 | CGGTTGTATT | 0.978
16 | CGGTTTGGG | 0.968
17 | CGTAAATACC | 1.71
18 | CGTAAATCTT | 1.02
19 | CGTAACGAGC | 0.976
20 | CGTAACTTTT | 0.925
21 | CGTAAGAGGG | 1.03
22 | CGTAAGGATT | 0.975
23 | CGTAAGTTCA | 1.08
24 | CGTAATGAGG | 0.998
25 | CGTAATGGAT | 0.99
26 | CGTAATTAGT | 1.07

Row | Sequence | switch fluorescence ratio
27 | CGTACACGTA | 1.01
28 | CGTACCACCT | 1.08
29 | CGTACGAAAG | 1.04
30 | CGTACGATG | 1.01
31 | CGTACGCAGT | 1.84
32 | CGTACGTAGG | 1.01
33 | CGTACTCATT | 1.01
34 | CGTAGAAGAG | 1.05
35 | CGTAGACATA | 1.13
36 | CGTAGAGAGT | 0.935
37 | CGTAGAGTTG | 1
38 | CGTAGCGAAG | 1.13
39 | CGTAGCTTC | 3.67
40 | CGTAGGACC | 1.02
41 | CGTAGGCATC | 1.05
42 | CGTAGTGGCA | 0.943
43 | CGTATAATTG | 0.994
44 | CGTATACGCC | 0.992
45 | CGTATAGATA | 1.01
46 | CGTATATAAC | 1.11
47 | CGTATATGAA | 1.01
48 | CGTATCAGGA | 0.989
49 | CGTATCGGTC | 0.994
50 | CGTATCTAGA | 0.985
51 | CGTATGCATT | 0.993
52 | CGTATGTACA | 1.02

Row | Sequence | switch fluorescence ratio
53 | CGTATGTCGA | 1.04
54 | CGTATTAACG | 1.03
55 | CGTATTATTC | 1.04
56 | CGTATTTGTG | 1.02
57 | CGTCAAACTA | 1.02
58 | CGTCAATGAT | 1
59 | CGTCACATCG | 1.02
60 | CGTCAGCACG | 1.06
61 | CGTCAGGAAC | 1.07
62 | CGTCAGTTTG | 0.968
63 | CGTCATAAGT | 1
64 | CGTCATAGCG | 0.956
65 | CGTCATGCAA | 3.2
66 | CGTCATGGTT | 0.996
67 | CGTCCACTGG | 1.08
68 | CGTCCCCAGA | 1.29
69 | CGTCCCTATA | 2.01
70 | CGTCCGCGG | 5.18
71 | CGTCCGGGTG | 2.15
72 | CGTCCTACAC | 1.39
73 | CGTCCTTGAC | 1
74 | CGTCGAA | 1.04
75 | CGTCGATTCA | 0.992
76 | CGTCGGACGC | 1.08
77 | CGTCGGCGG | 0.97
78 | CGTCGTTATC | 1.09

Row | Sequence | switch fluorescence ratio
79 | CGTCGTTCCT | 1.02
80 | CGTCTGAAAA | 0.971
81 | CGTCTGCGGG | 1.09
82 | CGTCTTCAA | 0.988
83 | CGTCTTGATG | 1.03
84 | CGTCTTGCAA | 3.2
85 | CGTCTTTATC | 1.02
86 | CGTGAACTTT | 1.03
87 | CGTGACCAA | 0.991
88 | CGTGAGAGGT | 0.956
89 | CGTGAGATGT | 0.981
90 | CGTGATAGGC | 1.08
91 | CGTGATCCCA | 1.01
92 | CGTGCAAAAG | 1.06
93 | CGTGCAGTAA | 1.4
94 | CGTGCAGTGG | 1.02
95 | CGTGCCATTC | 1.03
96 | CGTGCCTCGG | 0.994
97 | CGTGCGTCTC | 1.02
98 | CGTGCTGAC | 1.06
99 | CGTGCTGGGC | 0.954
100 | CGTGGACATC | 0.966
101 | CGTGGAGTTG | 0.997
102 | CGTGGATTGG | 0.99
103 | CGTGGCACCA | 1.03
104 | CGTGGCAGCT | 1.02

Row | Sequence | switch fluorescence ratio
105 | CGTGGCCACT | 0.965
106 | CGTGGCCGAC | 0.941
107 | CGTGGCTTTC | 1
108 | CGTGGGAGTC | 0.971
109 | CGTGGGAGTT | 0.969
110 | CGTGGGCCGG | 0.99
111 | CGTGGGTACT | 1.01
112 | CGTGGGTGG | 1.04
113 | CGTGGTTCGG | 1
114 | CGTGTACAGG | 0.971
115 | CGTGTACCGA | 0.992
116 | CGTGTGAAAC | 1.04
117 | CGTGTGAT | 1.01
118 | CGTGTGCTAC | 1.23
119 | CGTGTGCTTG | 0.986
120 | CGTGTGGGAG | 1.02
121 | CGTGTTGATC | 1.01
122 | CGTGTTGATG | 0.984
123 | CGTTAAGAAT | 1.03
124 | CGTTACAGCC | 1.04
125 | CGTTACCGAA | 0.94
126 | CGTTACTCTT | 1.08
127 | CGTTAGTTGT | 1.01
128 | CGTTATAAGA | 0.99
129 | CGTTATACGC | 1.09
130 | CGTTATGCA | 0.999

Row | Sequence | switch fluorescence ratio
131 | CGTTATTAAC | 1.01
132 | CGTTCAAAGG | 1.05
133 | CGTTCCCAAT | 1.6
134 | CGTTCCGTAT | 1.02
135 | CGTTCGATCT | 0.994
136 | CGTTCGTGCG | 0.996
137 | CGTTCGTTTA | 1.03
138 | CGTTCTAAGA | 1.04
139 | CGTTCTGCAC | 1.34
140 | CGTTGCATG | 0.897
141 | CGTTGCGCTT | 1.05
142 | CGTTGGACAC | 1.06
143 | CGTTGGCGCG | 0.964
144 | CGTTGGGATG | 0.964
145 | CGTTGGTTAG | 1.05
146 | CGTTTAAAAT | 1.03
147 | CGTTTACGGC | 0.985
148 | CGTTTAGGTC | 1.02
149 | CGTTTCATTG | 1.13
150 | CGTTTCCCCG | 1.03
151 | CGTTTCGACA | 1.01
152 | CGTTTCGGGG | 0.962
153 | CGTTTGAGCG | 0.943
154 | CGTTTGGCTC | 1.07
155 | CGTTTGGTA | 0.962
156 | CGTTTGGTGC | 0.999

Row | Sequence | switch fluorescence ratio
157 | CGTTTGTAGA | 1.03
158 | CGTTTTCGTT | 1.04
159 | CGTTTTGAGA | 1.06
160 | CGTTTTGAGT | 0.983
161 | CTAAAAAGTC | 0.995
162 | CTAAAATCTT | 1
163 | CTAAAATTGT | 0.997
164 | CTAAACATTG | 1
165 | CTAAATCGGA | 0.975
166 | CTAACCATCA | 1.05
167 | CTAACCGAGG | 1.01
168 | CTAACGCTG | 0.907
169 | CTAACTCAAA | 1.02
170 | CTAACTTCAC | 1.2
171 | CTAACTTCGC | 1.64
172 | CTAACTTTCT | 1.03
173 | CTAAGACATT | 0.988
174 | CTAAGAGT | 1.02
175 | CTAAGCAAAC | 2.68
176 | CTAAGCACGT | 1.14
177 | CTAAGTACC | 1.27
178 | CTAATAAG | 0.992
179 | CTAATAAGAG | 1.03
180 | CTAATACGGT | 0.998
181 | CTAATTCTGA | 0.972
182 | CTAATTGGCT | 0.956

Row | Sequence | switch fluorescence ratio
183 | CTACACCGGG | 1.19
184 | CTACACTATT | 1.04
185 | CTACAGCGGT | 1.13
186 | CTACCAAAGT | 1.02
187 | CTACCCGAGC | 1.15
188 | CTACCCTTGA | 1.04
189 | CTACCGCGGA | 3.3
190 | CTACCTCGGC | 1.32
191 | CTACGCCTCA | 1.8
192 | CTACGGGGAT | 1.08
193 | CTACGGTATA | 1.39
194 | CTACGGTCGT | 1.02
195 | CTACGTCGGC | 1.28
196 | CTACTACCCC | 1.35
197 | CTACTCATAT | 1.06
198 | CTACTGCATA | 2
199 | CTACTGGTCT | 1.06
200 | CTACTGTGCG | 1.07
201 | CTACTTCGCG | 1.09
